Test results published in the supplement of paper PMC3334620.
Over roughly 33,000 sequences, “E-score (-0.5 to 0.5)” has its median near -0.011; the highest 2% begin near 0.28. The list shows a part of the results.

These sequences were tested against T1, Gcr1 (UniProt P07261) (assay: PBM E-score (8-mer binding enrichment) (E-score (-0.5 to 0.5)); higher = stronger / more preferred TF binding; most listed sequences are background and not binding sites). Settings: protein concentration: 100 nM; construct: GST-full length.
T1 sequence: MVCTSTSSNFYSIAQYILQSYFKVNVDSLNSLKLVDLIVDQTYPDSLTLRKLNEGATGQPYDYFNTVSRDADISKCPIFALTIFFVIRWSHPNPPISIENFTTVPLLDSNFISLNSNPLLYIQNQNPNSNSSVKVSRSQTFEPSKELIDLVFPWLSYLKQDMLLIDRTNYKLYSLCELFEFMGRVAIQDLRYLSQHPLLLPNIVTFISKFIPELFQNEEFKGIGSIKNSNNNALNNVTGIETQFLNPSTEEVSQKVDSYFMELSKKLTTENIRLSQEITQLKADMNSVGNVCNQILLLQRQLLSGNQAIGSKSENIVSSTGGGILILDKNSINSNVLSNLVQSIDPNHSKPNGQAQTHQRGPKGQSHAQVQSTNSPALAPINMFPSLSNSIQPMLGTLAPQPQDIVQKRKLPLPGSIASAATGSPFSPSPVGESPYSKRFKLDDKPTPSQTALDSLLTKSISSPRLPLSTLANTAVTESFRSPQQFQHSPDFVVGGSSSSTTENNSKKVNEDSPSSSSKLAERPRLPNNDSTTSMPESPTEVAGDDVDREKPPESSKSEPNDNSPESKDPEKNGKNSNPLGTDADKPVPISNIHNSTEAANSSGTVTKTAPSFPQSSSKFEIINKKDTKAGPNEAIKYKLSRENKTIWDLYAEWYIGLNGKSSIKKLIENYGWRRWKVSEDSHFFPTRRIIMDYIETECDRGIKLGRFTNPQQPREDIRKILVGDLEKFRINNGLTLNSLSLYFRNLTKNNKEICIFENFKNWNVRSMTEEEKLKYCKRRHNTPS
How it was run: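 E-scores (a modified Wilcoxon-Mann-Whitney statistic) were assigned by the Universal PBM Analysis Suite to every ungapped eight-base word pooled with its reverse complement. The input came from universal all-10-mer Agilent arrays made double-stranded by primer extension and probed with GST-tagged yeast transcription factors at about 100-200 nM. Fluorescent anti-GST detected bound protein, and masliner normalised the scans.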
CCATAAAA was tested, and the “PBM E-score” value was 0.106.
With ACAATATG the “PBM E-score” value was -0.0528.
For GATTGGTA, the “PBM E-score” value was 0.0347.
For AGGCAACG, the “PBM E-score” value was 0.0198.
For CCTGAAAG, the “PBM E-score” value was -0.0259.
In the case of ACCCGGCC, the “PBM E-score” value is reported as -0.224.
With AAAGAGTA the “PBM E-score” value was 0.0206.
With AGCTTTGA the “PBM E-score” value was -0.112.
With CGGAAGTC the “PBM E-score” value was -0.00248.
For CCTTCTCA, the “PBM E-score” value was -0.156.
For CTTTGTGA, the “PBM E-score” value was -0.0688.
With GGCCCTAC the “PBM E-score” value was -0.0581.
For GCGCGCGC, the “PBM E-score” value was 0.0446.
GACCACAC was tested, and the “PBM E-score” value was -0.159.
In the case of GACCCCTC, the “PBM E-score” value is reported as -0.203.
With CTAACCAA the “PBM E-score” value was -0.0148.
With CCTGACCC the “PBM E-score” value was -0.0409.
With TACGGTAA the “PBM E-score” value was -0.0567.
In the case of CAGCGCTA, the “PBM E-score” value is reported as -0.0949.
For AGAAGGCT, the “PBM E-score” value was -0.0825.
In the case of GGGAGTGA, the “PBM E-score” value is reported as -0.0739.
In the case of AACCCGAT, the “PBM E-score” value is reported as 0.0971.
In the case of CAGGGTAC, the “PBM E-score” value is reported as -0.0251.
For CAGCCGGC, the “PBM E-score” value was 0.0486.
In the case of GCTGAACA, the “PBM E-score” value is reported as -0.00426.
With ATACTGAT the “PBM E-score” value was 0.0854.
For CCGTAGTA, the “PBM E-score” value was 0.00467.
In the case of GGCTTCAA, the “PBM E-score” value is reported as -0.00701.
In the case of AGGTTATA, the “PBM E-score” value is reported as -0.00288.
With ATAAAGTC the “PBM E-score” value was 0.045.
With CCTCGAAG the “PBM E-score” value was -0.0719.
In the case of AAGCTCAA, the “PBM E-score” value is reported as 0.0073.
With CTCTCTTC the “PBM E-score” value was -0.0719.
With GCTGAAGC the “PBM E-score” value was -0.244.
For AGGCGGAC, the “PBM E-score” value was -0.11.
With CGACATGC the “PBM E-score” value was -0.107.
AGTTACGA was tested, and the “PBM E-score” value was -0.0306.
For CGAGGCGA, the “PBM E-score” value was -0.24.
AGCCCTCC was tested, and the “PBM E-score” value was -0.0845.
In the case of AATACACG, the “PBM E-score” value is reported as 0.0422.
In the case of AACTTTAG, the “PBM E-score” value is reported as 0.0541.
GACACGTC was tested, and the “PBM E-score” value was -0.188.
In the case of CTTCAAGA, the “PBM E-score” value is reported as -0.0248.
GATCTTAC was tested, and the “PBM E-score” value was 0.0564.
GATATTAA was tested, and the “PBM E-score” value was 0.273.
For AGCGAGCG, the “PBM E-score” value was -0.0853.
In the case of ACGAGATC, the “PBM E-score” value is reported as -0.132.
For GCACGCGC, the “PBM E-score” value was -0.0786.
GATCTTAA was tested, and the “PBM E-score” value was 0.0466.
ACGCTCCG was tested, and the “PBM E-score” value was 0.147.
For AGGCTTCG, the “PBM E-score” value was 0.00576.
In the case of ATTGCCTA, the “PBM E-score” value is reported as -0.142.
For CGCGTCCC, the “PBM E-score” value was 0.0398.
In the case of CTGCGTCA, the “PBM E-score” value is reported as -0.0458.
For CACCGGCA, the “PBM E-score” value was 0.113.
In the case of AGTTCGTC, the “PBM E-score” value is reported as 0.0308.
For ATGTATAG, the “PBM E-score” value was 0.0743.
AGACTGAC was tested, and the “PBM E-score” value was -0.159.
CTTGCCTA was tested, and the “PBM E-score” value was -0.223.
AGTAATTG was tested, and the “PBM E-score” value was 0.0455.
With GTTAAGGA the “PBM E-score” value was 0.0919.
For ACTGGGCT, the “PBM E-score” value was -0.0292.
AAGAGGGT was tested, and the “PBM E-score” value was -0.0876.
In the case of AGTCAATC, the “PBM E-score” value is reported as 0.0162.
With AACTCGAC the “PBM E-score” value was 0.0369.
With AGAGCGCA the “PBM E-score” value was -0.136.
For ATCCCAAT, the “PBM E-score” value was 0.151.
In the case of AATTTGGG, the “PBM E-score” value is reported as 0.167.
ACTGCGAG was tested, and the “PBM E-score” value was -0.0742.
For AGTGCCTA, the “PBM E-score” value was -0.0357.
With AAGTGCAG the “PBM E-score” value was -0.0458.
For CACCTAGG, the “PBM E-score” value was -0.108.
In the case of ACCCGATC, the “PBM E-score” value is reported as 0.0489.
For AAGAGCTC, the “PBM E-score” value was -0.0616.
In the case of CGGGACGC, the “PBM E-score” value is reported as 0.13.
For CTAGCATC, the “PBM E-score” value was 0.315.
With ACAACTGT the “PBM E-score” value was -0.0194.
In the case of ATGGGGGG, the “PBM E-score” value is reported as -0.203.
For GTGGCAAA, the “PBM E-score” value was -0.0169.
In the case of ACTACGGG, the “PBM E-score” value is reported as 0.00638.
With GCCTGAGC the “PBM E-score” value was -0.185.
ACGTGCAC was tested, and the “PBM E-score” value was -0.15.
In the case of ACTACACC, the “PBM E-score” value is reported as -0.0155.
With CAATAGAA the “PBM E-score” value was 0.0509.
With AGGTCTCC the “PBM E-score” value was -0.0285.
With ATCTCCTA the “PBM E-score” value was -0.00396.
